Article PMC12040169 (PLOS Biology, 2025)
This is one part of the list.

What follows are compounds tested on T1, C. trachomatis L2/434/Bu expressing GFP (CTL2-GFP). Conditions: total inclusion area; 28.5 h, 10 µM; inhibitor.
T1 construct: L2/434/Bu GFP intracellular growth in HeLa cells
Set-up: species or system HeLa; C. trachomatis total inclusion area by high-content imaging, normalised to DMSO
Outline: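 Bulk GFP and resorufin signals were read first. Wells were then fixed, stained with Hoechst and imaged to detect GFP inclusions and host nuclei. MICs followed the previously described calculation.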
In the case of `COc1ccc(CC(=O)N2CC=C(c3ccc(C)o3)CC2)cc1` [CBK283572], the “% of control remaining” value is reported as 81.7392. With `CCCN1C(=O)COc2ccc(-c3noc(-c4ccccn4)n3)cc21` [CBK288596] the “% of control remaining” value was 66.2267. With `CCn1cc(C(=O)O)c(=O)c2cc(F)c(N3CCN(C(=S)NC(=O)c4c(-c5ccccc5)noc4C)CC3)cc21` [CBK267490] the “% of control remaining” value was 90.7203. In the case of `N#Cc1c(F)cccc1N1CCCC(C(=O)Nc2nncs2)C1` (stereo not shown) [CBK306335], the “% of control remaining” value is reported as 51.7068. In the case of `CCCc1cc(CNC(=O)c2ccnn2C(C)C)on1` [CBK282047], the “% of control remaining” value is reported as 130.249. For `O=c1nc(CNc2ccc(Br)cc2)[nH][nH]1` [CBK288403], the “% of control remaining” value was 53.2609. With `CCOC(=O)c1ccc(-c2ccc(/C=N/N=C3\NC(=O)C(CC(=O)O)S3)o2)cc1` (stereo not shown) [CBK264474] the “% of control remaining” value was 105.588. `Nn1c(SCCCCSc2nnc(C(F)(F)F)n2N)nnc1C(F)(F)F` [CBK267946] was tested, and the “% of control remaining” value was 109.07. In the case of `O=C(OCc1ccccc1)N1CCN(c2ccccc2)CC1` [CBK200241], the “% of control remaining” value is reported as 79.1582. For `Cc1ccc(NS(=O)(=O)c2ccc(OC(F)(F)F)cc2)c(CO)c1` [CBK043267], the “% of control remaining” value was 97.4273. With `O=c1c(N2CCCNCC2)nccn1CCOc1ccc(Oc2ccccc2)cc1` [CBK028615T] the “% of control remaining” value was 109.981. For `CC(C)Oc1ncccc1OCc1ccccc1` [CBK001457], the “% of control remaining” value was 123.77. For `O=C(Nc1cccc(C(=O)O)c1)/C(=C\c1ccco1)NC(=O)c1ccc(Br)cc1` [CBK263707], the “% of control remaining” value was 97.1417. With `CCOC(=O)NC(Nn1cnnc1)(C(F)(F)F)C(F)(F)F` [CBK261344] the “% of control remaining” value was 91.507. In the case of `CC1(C)Cc2ccccc2C(NC(Cc2ccccc2)C(=O)O)=N1` (stereo not shown) [CBK262533], the “% of control remaining” value is reported as 99.0084. `CC(=O)C1=C(O)C(=O)N(CCN2CCNCC2)C1c1cccc([N+](=O)[O-])c1` (stereo not shown) [CBK263320] was tested, and the “% of control remaining” value was 81.3597. `Cc1ccc(N(C(C)C(=O)Nc2ccccc2-c2ccccc2)S(C)(=O)=O)cc1` (stereo not shown) [CBK267889] was tested, and the “% of control remaining” value was 101.355. For `O=C(O)C1CCCCC1C(=O)NCCCCc1ccccc1` (stereo not shown) [CBK287205], the “% of control remaining” value was 84.591. With `CC(C)(C)OC(=O)N1CCN(c2cncc(NCc3ccccc3)n2)CC1` [CBK000154] the “% of control remaining” value was 102.148. For `OC1(Cn2ccc3ncccc32)CCN(CC2CC=CCC2)CC1` (stereo not shown) [CBK284782], the “% of control remaining” value was 96.487. In the case of `CCCC/C=C/c1nccnc1NCc1ccc(C(F)(F)F)cc1` [CBK038077], the “% of control remaining” value is reported as 105.693. With `COc1ccccc1/C=C1/S/C(=N/Cc2ccccc2)N(Cc2ccccc2)C1=O` [CBK262234] the “% of control remaining” value was 102.032. With `COc1cc(OC)c(OC)cc1CN1CCN(S(=O)(=O)c2ccc(C)cc2)CC1` [CBK263323] the “% of control remaining” value was 65.8902. With `Cc1nc2ccccn2c1CC(=O)N1CCCC(c2ccc(Cc3cccc(F)c3)cn2)C1` (stereo not shown) [CBK286002] the “% of control remaining” value was 84.7212. `O=CN1CCN(S(=O)(=O)c2ccc3c(c2)Cc2cc(S(=O)(=O)N4CCN(C=O)CC4)ccc2-3)CC1` [CBK264351] was tested, and the “% of control remaining” value was 119.177. In the case of `Cn1ccnc1CCC1CCCCN1C(=O)NCc1cccc(F)c1` (stereo not shown) [CBK307124], the “% of control remaining” value is reported as 24.7068. With `COc1ccc(-c2cnc(N)c(-c3ccc(C(=O)NCCO)cc3)n2)cn1` [CBK064147] the “% of control remaining” value was 108.626. In the case of `Cn1c2ccc(Br)cc2c2nnc(SCC(=O)N3c4ccccc4Sc4ccccc43)nc21` [CBK263900], the “% of control remaining” value is reported as 118.955. `CC(C)[C@@H]1C[C@H](C(F)(F)F)n2nc(C3CCCNC3)cc2N1` (stereo partly shown) [CBK283056] was tested, and the “% of control remaining” value was 107.31. In the case of `COc1ccc(C)cc1-n1ccc(C(=O)NC2(C#N)CCSC2)n1` (stereo not shown) [CBK304943], the “% of control remaining” value is reported as 38.6679. For `Cc1cc(NS(=O)(=O)c2cccc([N+](=O)[O-])c2)n(C)n1` [CBK067243], the “% of control remaining” value was 97.2918. For `Cn1nc(-c2ccccc2)cc1[C@H]1CN2CC[C@H]1C[C@@H]2CNS(C)(=O)=O` [CBK289096], the “% of control remaining” value was 90.8491. For `COc1cccc(C2CC(=O)Nc3c2c(=O)nc(SC)n3C)c1` (stereo not shown) [CBK307546], the “% of control remaining” value was 81.9696. For `Cc1ccc(-n2ncc3c(=O)n(CC(=O)Nc4cccc(C)c4)cnc32)cc1` [CBK287533], the “% of control remaining” value was 100.879. In the case of `Cc1nn(CC(=O)OC(C)C)c(=O)c2cc3sccc3n12` [CBK284022], the “% of control remaining” value is reported as 90.9123. `CN1CCN(c2ccc(-c3cnc4[nH]c(=O)n(C5CC5)c4n3)cc2)CC1` [CBK064899] was tested, and the “% of control remaining” value was 91.2083. With `CC(C)Nc1cc(Sc2cccc(C(=O)O)c2)ncn1` [CBK093583] the “% of control remaining” value was 83.4272. `Cc1c(C(=O)N(C)Cc2nc3ccccc3s2)nnn1C1CCNCC1` [CBK306501C] was tested, and the “% of control remaining” value was 27.619. In the case of `Cn1c(NC(=O)COc2ccccc2)nc2ccccc21` [CBK269783], the “% of control remaining” value is reported as 95.5965. With `N#CCCN(CC1CCCO1)S(=O)(=O)c1ccc(OC(F)(F)F)cc1` (stereo not shown) [CBK044405] the “% of control remaining” value was 88.4773. In the case of `O=C(O)c1cccc(/N=C/c2ccc(/C=N/c3cccc(C(=O)O)c3)cc2)c1` [CBK261088], the “% of control remaining” value is reported as 96.6327. For `CCOC(=O)c1[nH]c2ccccc2c1NC(=O)CN1C(=O)CSC1=O` [CBK160163], the “% of control remaining” value was 91.802. For `COc1ccc(-c2nc(NC(=O)Cc3ccc(N(C)C)cc3)cnc2-c2ccc(F)cc2)cn1` [CBK037582], the “% of control remaining” value was 84.2214. `O=C(O)CSc1ccccc1[N+](=O)[O-]` [CBK111324] was tested, and the “% of control remaining” value was 92.4743. In the case of `COc1ccc(NC(=O)CSc2nsc(SCC(=O)Nc3ccc(OC)cc3)n2)cc1` [CBK008918], the “% of control remaining” value is reported as 95.4606. For `COc1cccc(CCN2CCC(C(=O)NC(c3ccc(F)cc3)c3nc(OC)cc(OC)n3)CC2)c1` (stereo not shown) [CBK148089], the “% of control remaining” value was 100.024. For `Cc1ccc(OCc2occc2C(=O)N2CCCCC(N)C2)cc1` (stereo not shown) [CBK306840], the “% of control remaining” value was 79.1637. For `COC(=O)C1CCN(S(=O)(=O)c2ccccc2[N+](=O)[O-])CC1` [CBK264393], the “% of control remaining” value was 81.0596. For `Cc1ccc(NC(=O)Cn2cnc3c2c(=O)n(C)c(=O)n3C)nc1` [CBK133463], the “% of control remaining” value was 114.169. With `Cc1nc2ccccc2c2c1C(=O)N(c1cccc(C(=O)OCC(=O)c3ccccc3Cl)c1)C2=O` [CBK265505] the “% of control remaining” value was 93.9634. For `CC1CCN(S(=O)(=O)N2CCCC2c2cccc(F)c2)CC1` (stereo not shown) [CBK281957], the “% of control remaining” value was 107.322. `CCN(CC)Cc1ccc2[nH]c(=O)c(CNCc3ccc(OC)cc3)cc2c1` [CBK132113] was tested, and the “% of control remaining” value was 108.144. With `O=C(Cc1cccc2ccccc12)Nc1ccc(Br)cc1C(=O)O` [CBK268286] the “% of control remaining” value was 88.5487. With `Cn1cc(CC(=O)N2CCN(c3ccccc3)CC2)c2ccccc21` [CBK200168] the “% of control remaining” value was 97.7785. With `C1CN=C(SCCCSC2=NCCCN2)NC1` [CBK278210B] the “% of control remaining” value was 87.4374. In the case of `O=[N+]([O-])c1ccc(O)c(/C=N/c2ccc(Oc3ccc(/N=C/c4cc([N+](=O)[O-])ccc4O)cc3)cc2)c1` [CBK261093], the “% of control remaining” value is reported as 96.71. With `N#Cc1ccc(N2C(=O)c3ccccc3S2(=O)=O)cc1` [CBK113195] the “% of control remaining” value was 93.3176. With `CNS(=O)(=O)c1cccc(C(C)NC(=O)N2CCSCC2)c1` (stereo not shown) [CBK305825] the “% of control remaining” value was 107.686. With `COc1ccc(C(=O)N[C@@H]2CN(Cc3ccc(CO)o3)CCC[C@H]2O)cc1` [CBK289067] the “% of control remaining” value was 109.28. For `COc1nccnc1N1CCN(Cc2cccnc2)CC1` [CBK084213], the “% of control remaining” value was 93.2085. With `CC(C)c1ccc(COc2nccnc2OC2CCN(CCCC#N)CC2)cc1` [CBK161576] the “% of control remaining” value was 97.2819. For `CC1CN(C(C)N2CC(C)OC2=O)C(=O)O1` (stereo not shown) [CBK022981], the “% of control remaining” value was 108.482. `COc1cccc(C(=O)NCCC(=O)N2CCOCC2)c1` [CBK304639] was tested, and the “% of control remaining” value was 93.0262. With `CS(=O)(=O)N(CC(=O)Nc1ccc(C(F)(F)F)cc1)Cc1ccc(Cl)cc1` [CBK268915] the “% of control remaining” value was 87.3785. For `O=C(Cc1ccc(F)cc1)N1CCCC(c2cc3ncccc3[nH]2)C1` (stereo not shown) [CBK283414], the “% of control remaining” value was 89.8182. In the case of `COc1cc(-c2cn3ccnc3c(NCC3CCOCC3)n2)cc(OC)c1OC` [CBK037284], the “% of control remaining” value is reported as 134.128. With `CN(C)CCNc1nc(-c2ccc(Cl)cc2)nc2ccccc12` [CBK263942] the “% of control remaining” value was 15.7313. With `CCCCC1C(=O)N(C)CCN1C(=O)NCc1cn2ccc(C)cc2n1` (stereo not shown) [CBK306648] the “% of control remaining” value was 81.2332. In the case of `COc1ccccc1NC(=O)CCCC(=O)O` [CBK261323], the “% of control remaining” value is reported as 86.4988. In the case of `Cc1ccccc1C(=O)Nc1ccc(S(=O)(=O)Nc2nccs2)cc1` [CBK086797], the “% of control remaining” value is reported as 92.4458. For `COc1ccccc1-c1nccnc1N[C@@H](CO)C(C)C` [CBK089034], the “% of control remaining” value was 108.178. In the case of `CCCCSc1nnc2nc(C)cc(C)n12` [CBK027588], the “% of control remaining” value is reported as 50.3279. For `CN(Cc1ccc(-c2ccc(S(C)(=O)=O)cc2)cn1)C1CCN(C(=O)CC(C)(C)O)CC1` [CBK165684T], the “% of control remaining” value was 27.084. For `CCc1[nH]c(=O)c(C(=O)N2CCc3[nH]c4c(C)cccc4c3C2)cc1C` [CBK281586], the “% of control remaining” value was 100.34. In the case of `Nc1ccccc1Sc1ccccn1` [CBK085854], the “% of control remaining” value is reported as 81.3772. For `CS(=O)(=O)N(CC(=O)NC1CCCCCCC1)c1ccccc1` [CBK270112], the “% of control remaining” value was 108.932. For `O=C(Nc1cccc(Br)c1)/C(=C\c1cccnc1)NC(=O)c1ccccc1` [CBK261450], the “% of control remaining” value was 105.828. For `COc1ccccc1/C=C(/NC(=O)c1ccc(Cl)cc1Cl)C(=O)O` [CBK263998], the “% of control remaining” value was 69.9678. With `CC(=O)c1ccccc1NC(=O)CSCC(=O)O` [CBK057752] the “% of control remaining” value was 79.7316.
